Experimental data: PubChem BioAssay AID686978 (National Center for Advancing Translational Sciences (NCATS), 2013)
About 64,000 (15%) of roughly 420,000 compounds were called active. Inconclusive results, whose numbers are uncertain, are shown with a selection of clear calls. The call rests on the fitted dose curve; in most records, active means well fitted inhibition curve with a large enough effect; inconclusive means small, poorly fitted or top-dose-only effect; inactive means flat fitted curve, though single readings scatter. No potency is given beside an inconclusive call; the fits are too rough.
On the % scale 0 is the no-effect control and ±100 the full control effect; potency means the concentration at half of the fitted maximal effect; tags describe the fitted curve by direction and shape.

Experiment: qHTS for Inhibitors of human tyrosyl-DNA phosphodiesterase 1 (TDP1): qHTS in cells in absence of CPT; further: nearly all actives have a fitted effect of over 55% in size
Settings: DT40 Tdp1-/- hTDP1 cells, no CPT, ATP luminescence, 48 h; activity change, negative = growth inhibition: at 46.2 µM (top of the series) unless noted
Summary of the method: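 A cellular qHTS used chicken DT40 cells lacking endogenous Tdp1 but carrying stably transfected human TDP1. Compounds were applied without camptothecin, and cell growth kinetics were judged by ATP-dependent luminescence after ≥48 hr.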
With `CCOc1ccc(-n2nc3cc(C)c(N)cc3n2)cc1` the “activity change, negative = growth inhibition” value was inactive: -7.93%.
For `CC(C)[C@H](NC(=O)c1ccco1)C(=O)N(C)Cc1ccc(C(F)(F)F)cc1`, the Potency was inconclusive [inhibitor, single point].
For `Cc1ccccc1C(=O)OC1OC(=O)C(Cl)=C1Nc1ccccc1` (centres undefined), the Potency was inconclusive [inhibitor, single point].
With `COc1ccc(-c2cc(=O)oc3cc(OC(C)C(=O)NCC4CCC(C(=O)O)CC4)ccc23)cc1` (centres undefined) the “activity change, negative = growth inhibition” value was inactive: -16.3%.
With `Cc1ccc(S(=O)(=O)NCCSc2nnnn2-c2ccc(Cl)c(C(=O)O)c2)cc1` the “activity change, negative = growth inhibition” value was inactive: -4.28%.
In the case of `CC(=O)Nc1ccc(C2Nc3c(C)cc(C)cc3-c3cc(C)nn32)cc1` (centres undefined), the Potency is reported as inconclusive [inhibitor, partial curve, poor fit].
In the case of `O=[N+]([O-])c1ccc(OCC(O)CN2CCN(c3ccccc3F)CC2)cc1` (centres undefined), the Potency is reported as inconclusive [inhibitor, single point].
For `COc1ccccc1-c1cc(C(F)(F)F)n2ncc(S(=O)(=O)c3ccccc3)c2n1`, the Potency was inconclusive [inhibitor, single point].
With `COC(=O)c1ccc(NC(=S)NN2CCOCC2)cc1` the “activity change, negative = growth inhibition” value was inactive: 13.8%.
For `COc1ccc(C(=O)Oc2ccc(C)cc2)cc1S(=O)(=O)N1CCOCC1`, the Potency was inconclusive [inhibitor, single point].
In the case of `COC(=O)c1sc(C(F)(F)F)c(-c2ccccc2)c1S(=O)(=O)NC(C)(C)C`, the Potency is reported as inconclusive [inhibitor, single point].
For `COc1ccc(OC)c(CNC(=O)c2coc(=O)c3ccccc23)c1`, the Potency was inconclusive [inhibitor, single point].
With `Cc1nccc(-c2cccc(NC(=O)Nc3ccc(Cl)cc3)c2)n1` the Potency was inconclusive [inhibitor, single point].
In the case of `CCOc1ccc(C(C)=O)cc1COC(=O)CN1C(=O)NC2(CCCC2)C1=O`, the “activity change, negative = growth inhibition” value is reported as inactive: -25.4%.
For `COc1ccc2c(c1)N(C)C(=O)CC(c1ccccc1)=N2`, the Potency was inconclusive [inhibitor, single point].
For `Cc1ccc([C@H]2C(C#N)=C(N)Oc3cc(C)oc(=O)c32)o1`, the Potency was active: 23.1 µM.
In the case of `COc1ccc(S(=O)(=O)N(C)C[C@@H]2OCc3cnnn3CCCC(=O)N([C@H](C)CO)C[C@@H]2C)cc1`, the “activity change, negative = growth inhibition” value is reported as inactive: -14.4%.
With `CCOCCCNC(=O)CN1C(=O)/C(=C\c2ccc(C)cc2)Sc2ccccc21` the Potency was inconclusive [inhibitor, single point].
With `Cc1cc(C)cc(Nc2sc(C(=O)c3ccccc3)c(N)c2S(=O)(=O)c2ccccc2)c1` the Potency was inconclusive [inhibitor, single point].
For `CCOC(=O)c1c(C)oc2nc(C)nc(NCc3ccccc3OCC)c12`, the Potency was inconclusive [inhibitor, single point].
For `Cc1cc(C)n2c(Nc3ccc4c(c3)OCCO4)c(-c3ccccn3)nc2n1`, the Potency was inconclusive [inhibitor, single point].
With `CC(C)(C)c1cc(-n2ccnc2)n2ncc(-c3ccc(Cl)cc3)c2n1` the Potency was inconclusive [inhibitor, single point].
For `O=C(NCc1ccccc1)c1nc[nH]c1C(=O)N1CCc2ccccc2C1`, the Potency was inconclusive [inhibitor, single point].
With `CCn1nc(C)c(/C=N/NC(=O)Cc2ccc(Cl)cc2)c1C` the Potency was inconclusive [inhibitor, single point].
With `COc1cc2c(c(OC)c1OC)C(=O)C(=Cc1ccccc1)O2` the Potency was inconclusive [inhibitor, single point].
For `Cc1ccc(NC(=O)C2CCCN(S(=O)(=O)c3c(C)noc3C)C2)c(C)c1` (centres undefined), the Potency was inconclusive [inhibitor, partial curve].
With `CC1=C(C(=O)N2CCCCCC2)CC(CC(=O)NC2CCCC2)C(=O)N1Cc1ccc(F)cc1` (centres undefined) the Potency was inconclusive [inhibitor, partial curve].
In the case of `O=C(NCc1ccccc1)c1cc(C2CCCN(C(=O)CCc3ccccc3)C2)on1` (centres undefined), the Potency is reported as inconclusive [inhibitor, partial curve].
With `CN(C)c1cccc(C(=O)N(Cc2ccccc2)Cc2ccccc2)c1` the Potency was inconclusive [inhibitor, partial curve].
With `O=S(=O)(N/N=C\C=C\c1ccccc1)c1ccc(Br)cc1` the “activity change, negative = growth inhibition” value was inactive: -10%.
In the case of `Cc1ccc(C(=O)NNC(=O)c2n[nH]c(=O)c3ccccc23)cc1C`, the “activity change, negative = growth inhibition” value is reported as inactive: -14.2%.
For `CC1CCCC(C)N1C(=O)COC(=O)c1nn(C)c(=O)c2ccccc12` (centres undefined), the “activity change, negative = growth inhibition” value was inactive: 0.0974%.
In the case of `COc1ccccc1N(C)S(=O)(=O)c1ccc(C(=O)N2CCCc3ccccc32)cc1`, the Potency is reported as active: 23.1 µM.
With `Cc1noc(C)c1C(=O)Nc1ccccc1N1CCCC1` the Potency was inconclusive [inhibitor, partial curve].
With `COc1ccc(OCCSc2nc3ccccc3n2CC(=O)O)cc1` the activity change, negative = growth inhibition was inconclusive: -31.9% [inhibitor].
In the case of `O=C(NCc1cc(C(F)(F)F)cc(C(F)(F)F)c1)C1CC(c2ccccc2F)=NO1` (centres undefined), the Potency is reported as inconclusive [inhibitor, partial curve].
For `CC#CCN(CC#CC)S(=O)(=O)c1ccc(-n2cnnn2)c(OC)c1`, the Potency was inconclusive [inhibitor, single point].
For `CCOc1ccccc1N1CCN(CC(O)COC2CCCc3ccccc32)CC1` (centres undefined), the Potency was inconclusive [inhibitor, partial curve].
For `O=C(NCc1ccccc1Cl)C1CCCN(c2ncnc3onc(-c4ccc(F)cc4)c23)C1` (centres undefined), the Potency was active: 16.4 µM.
With `CC[C@]12c3[nH]c4ccc(OC)cc4c3CCN1C(=O)C(CC(=O)NCCc1ccccn1)C[C@@H]2C(=O)N1CCN(C(=O)C2CC2)CC1` (some centres undefined) the “activity change, negative = growth inhibition” value was inactive: -3.38%.
For `CCn1ncc(Br)c1C(=O)Nc1ccc(C(C)C)cc1`, the “activity change, negative = growth inhibition” value was inactive: -21.1%.
For `O=C(Nc1nnc(-c2ccccc2Cl)o1)c1cccnc1`, the Potency was inconclusive [inhibitor, single point].
With `O=C(CSc1ccsc1[N+](=O)[O-])N1CCCCC1` the “activity change, negative = growth inhibition” value was inactive: -9.26%.
With `CCC1(C)Cc2c(C#N)c(N)n(N)c(=S)c2CO1` (centres undefined) the “activity change, negative = growth inhibition” value was inactive: -18.5%.
In the case of `COc1ccc(/C=N/Nc2ncnc(Cl)c2N)cc1OC`, the Potency is reported as inconclusive [inhibitor, single point].
With `CN(CCCN1CCCCC1)C(=O)CCc1nnc(C2CCCCC2)o1` the “activity change, negative = growth inhibition” value was inactive: -0.447%.
For `Cc1cc(C)c(C(N)=O)c(NCCc2ccccc2)n1`, the Potency was inconclusive [inhibitor, single point].
For `COc1ccc(C(CC(=O)Nc2cccc(C)c2C)N2Cc3ccccc3C2=O)cc1` (centres undefined), the Potency was active: 16.4 µM.
For `Cc1cccc(-c2cc(NC(=O)C(C)(C)C)n(-c3ccccc3)n2)c1`, the Potency was inconclusive [inhibitor, partial curve].
With `CCCn1nc(C(=O)NC2CCCC2)c2ccccc2c1=O` the Potency was inconclusive [inhibitor, single point].
For `CCOc1ccc(C(=O)n2cc(C(=O)OC)c3ccccc32)cc1OCC`, the activity change, negative = growth inhibition was inconclusive: -31% [inhibitor].
For `CCCc1ccc(OCc2ccc(C(=O)N/N=C/c3cccc([N+](=O)[O-])c3)o2)c(OC)c1`, the Potency was active: 6.51 µM.
For `CSc1ccc(C(=O)C2CCCN(C(=O)c3nn(C)c(=O)c4ccccc34)C2)cc1` (centres undefined), the Potency was active: 16.4 µM.
For `COc1cccc(C(=O)NNC2=C(C(=O)C(F)(F)F)CCC2)c1`, the Potency was active: 1.46 µM.
For `COc1cc(-c2nnc(-c3ccco3)o2)ccc1OCc1ccccc1`, the activity change, negative = growth inhibition was inconclusive: -34.7% [inhibitor].
For `COC(=O)[C@]1(Cc2ccccc2)N[C@H](CN(C)C(=O)Nc2ccccc2)[C@@H]2C(=O)N(Cc3ccccc3)C(=O)[C@@H]21`, the Potency was inconclusive [inhibitor, single point].
For `O=C(COc1ccc(F)cc1)Nc1ccccc1C(=O)OCc1cc(=O)n2nc(C3CC3)sc2n1`, the Potency was inconclusive [inhibitor, single point].
In the case of `O=C(N/N=C/c1c[nH]c2ccc(Br)cc12)c1ccccn1`, the Potency is reported as inconclusive [inhibitor, single point].
For `Cc1nn(Cc2ccc(F)cc2)c2sc(C(=O)Nc3nccs3)cc12`, the “activity change, negative = growth inhibition” value was inactive: -9.21%.
In the case of `C=CCNc1cc(C(F)(F)F)nc(-c2ccccn2)n1`, the Potency is reported as inconclusive [inhibitor, single point].
In the case of `CCOC(=O)C1=C(c2ccc(OC)cc2)OC(N)=C(C#N)C1c1cccnc1` (centres undefined), the activity change, negative = growth inhibition is reported as inconclusive: -35.7% [inhibitor].
In the case of `O=C(Nc1ccc(OC(F)(F)F)cc1)c1ccc2ccccc2n1`, the Potency is reported as inconclusive [inhibitor, single point].
With `Cc1cc2ncn(/N=C/c3ccc4c(c3)OCO4)c2cc1C` the Potency was inconclusive [inhibitor, partial curve, poor fit].
For `COc1ccc(CNC(=S)Nc2cccc(C)c2)cc1`, the activity change, negative = growth inhibition was inconclusive: -30% [inhibitor].
With `O=C1CC(SC(=NCc2ccc3c(c2)OCO3)Nc2ccccc2)C(=O)N1c1ccccc1` (centres undefined) the Potency was inconclusive [inhibitor, single point].
For `Cc1cccc(C(=O)Nc2ccc(C(=O)N/N=C/c3ccc4c(c3)OCO4)cc2)c1`, the activity change, negative = growth inhibition was inconclusive: -31% [inhibitor].
With `Cc1c(C(=O)NCc2ccc(F)cc2)c(-c2ccccc2)nn1-c1ccccc1` the Potency was inconclusive [inhibitor, single point].
For `COc1cccc(CN(C)C(=O)c2cccc(NC(=O)CC3SC(N4CCCCC4)=NC3=O)c2)c1OC` (centres undefined), the Potency was active: 18.4 µM.
With `CC(NC(=O)c1ccc2c(=O)n3c(nc2c1)CCCCC3)c1ccccc1` (centres undefined) the “activity change, negative = growth inhibition” value was inactive: -28.1%.
